# From the supplement of paper PMC8728848
# The other results are listed elsewhere or left out.
# B1: HA-11100 (Pseudomonas aeruginosa), Q02G51_PSEAB (protein)
# chain: QFNPNEIKISQQGKTTLIDQSTQRAIINWKGFDVSADEAVRFNQPGVTSSTLNRVTAGQESVIAGRISAPGQVIIYNSNGVVFSGSAKVDVGSLITTTANISDEHFRQGKLIFDQPGNPDARIVNDGSISVAEKGLAAFVAPSVANNGVINARLGTVAMAAGNAATIDLYG
# Columns and labels:
# Experiment in all cases: glycan array binding signal (z-score within array); higher = stronger binding
# Conditions in all cases: glycan notation: IUPAC condensed, linker removed
# [1] = target: Gal(b1-4)GlcNAc(b1-6)Gal(b1-4)GlcNAc
# Method in brief: (§1)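 Negative Z-scores can be read as non-binding. The Z-score is calculated within each array and then averaged across arrays of one protein sequence at different concentrations or buffers and across linkers. Arrays, 3228 in all, were curated from the Consortium for Functional Glycomics database and kept only where the protein sequence was available.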
# [2] = target: Gal(b1-4)GlcNAc(b1-6)GalNAc
# Method in brief: as §1
# [3] = target: Gal(b1-4)GlcNAc(b1-6)[Gal(b1-3)]GalNAc
# Method in brief: as §1
# [4] = target: Gal(b1-4)GlcNAc(b1-6)[Gal(b1-4)GlcNAc(b1-3)]GalNAc
# Method in brief: as §1
# Gal(b1-4)GlcNAc6P = target: Gal(b1-4)GlcNAc6P
# Method in brief: as §1
# Gal(b1-6)Gal = target: Gal(b1-6)Gal
# Method in brief: as §1
# Gal3S(b1-3)GalNAc = target: Gal3S(b1-3)GalNAc
# Method in brief: as §1
# Gal3S(b1-3)GlcNAc = target: Gal3S(b1-3)GlcNAc
# Method in brief: as §1
# [5] = target: Gal3S(b1-3)[Fuc(a1-4)]GlcNAc
# Method in brief: as §1
# Gal3S(b1-4)Glc = target: Gal3S(b1-4)Glc
# Method in brief: as §1
# Gal3S(b1-4)Glc6S = target: Gal3S(b1-4)Glc6S
# Method in brief: as §1
# Gal3S(b1-4)GlcNAc = target: Gal3S(b1-4)GlcNAc
# Method in brief: as §1
# [6] = target: Gal3S(b1-4)[Fuc(a1-3)]Glc6S
# Method in brief: as §1
# [7] = target: Gal3S(b1-4)[Fuc(a1-3)]GlcNAc
# Method in brief: as §1
# [8] = target: Gal3S(b1-4)[Fuc(a1-3)]GlcNAc6S
# Method in brief: as §1
# Gal3S4S(b1-4)GlcNAc = target: Gal3S4S(b1-4)GlcNAc
# Method in brief: as §1
# Gal3S6S(b1-4)GlcNAc = target: Gal3S6S(b1-4)GlcNAc
# Method in brief: as §1
# Gal3S6S(b1-4)GlcNAc6S = target: Gal3S6S(b1-4)GlcNAc6S
# Method in brief: as §1
# Gal4S(b1-4)GlcNAc = target: Gal4S(b1-4)GlcNAc
# Method in brief: as §1
# Gal4S6S(b1-4)GlcNAc = target: Gal4S6S(b1-4)GlcNAc
# Method in brief: as §1
# Gal6P(b1-4)GlcNAc = target: Gal6P(b1-4)GlcNAc
# Method in brief: as §1
# Gal6S(b1-3)GlcNAc = target: Gal6S(b1-3)GlcNAc
# Method in brief: as §1
# Gal6S(b1-3)GlcNAc6S = target: Gal6S(b1-3)GlcNAc6S
# Method in brief: as §1
binder,measurement,setting,value
B1,glycan array binding signal (z-score),[1],-0.457
same,glycan array binding signal (z-score),[2],0.612
same,glycan array binding signal (z-score),[3],-0.41
same,glycan array binding signal (z-score),[4],-0.292
same,glycan array binding signal (z-score),Gal(b1-4)GlcNAc6P,-0.149
same,glycan array binding signal (z-score),Gal(b1-6)Gal,-0.505
same,glycan array binding signal (z-score),Gal3S(b1-3)GalNAc,-0.013
same,glycan array binding signal (z-score),Gal3S(b1-3)GlcNAc,-0.23
same,glycan array binding signal (z-score),[5],-0.282
same,glycan array binding signal (z-score),Gal3S(b1-4)Glc,-0.321
same,glycan array binding signal (z-score),Gal3S(b1-4)Glc6S,-0.303
same,glycan array binding signal (z-score),Gal3S(b1-4)GlcNAc,-0.36
same,glycan array binding signal (z-score),[6],0.642
same,glycan array binding signal (z-score),[7],-0.179
same,glycan array binding signal (z-score),[8],-0.451
same,glycan array binding signal (z-score),Gal3S4S(b1-4)GlcNAc,-0.316
same,glycan array binding signal (z-score),Gal3S6S(b1-4)GlcNAc,-0.352
same,glycan array binding signal (z-score),Gal3S6S(b1-4)GlcNAc6S,-0.357
same,glycan array binding signal (z-score),Gal4S(b1-4)GlcNAc,-0.267
same,glycan array binding signal (z-score),Gal4S6S(b1-4)GlcNAc,-0.595
same,glycan array binding signal (z-score),Gal6P(b1-4)GlcNAc,-0.262
same,glycan array binding signal (z-score),Gal6S(b1-3)GlcNAc,-0.427
same,glycan array binding signal (z-score),Gal6S(b1-3)GlcNAc6S,-0.136
